This is a selection; strong and weak results do not stand in their true shares.
Columns and labels:
[1] = target: T1, Mitogen-activated protein kinase 12 (Homo sapiens) (UniProt P53778); details: at 1 µM;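 also: values are averaged p38gamma kinase inhibition readings, compounds tested at 1 µM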
T1 sequence (whole entry): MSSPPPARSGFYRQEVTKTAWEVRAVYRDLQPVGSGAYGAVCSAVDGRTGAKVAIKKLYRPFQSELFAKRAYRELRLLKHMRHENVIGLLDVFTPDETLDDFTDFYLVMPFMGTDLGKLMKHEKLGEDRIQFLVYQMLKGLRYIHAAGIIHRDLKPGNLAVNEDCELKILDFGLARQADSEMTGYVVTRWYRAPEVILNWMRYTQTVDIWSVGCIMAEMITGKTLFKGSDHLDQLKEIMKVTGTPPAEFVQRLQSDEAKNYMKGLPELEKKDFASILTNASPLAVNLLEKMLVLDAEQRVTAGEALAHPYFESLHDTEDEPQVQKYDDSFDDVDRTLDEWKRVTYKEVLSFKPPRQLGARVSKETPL

[2] = target: SRSF protein kinase 1 (Homo sapiens) (UniProt Q96SB4); details: at 0.1 µM
[3] = target: SRSF protein kinase 1 (Homo sapiens) (UniProt Q96SB4); details: at 1 µM
[4] = target: Phosphatidylinositol 4,5-bisphosphate 3-kinase catalytic subunit alpha isoform (Homo sapiens) (UniProt P42336); details: at 0.1 µM
[5] = target: Phosphatidylinositol 4,5-bisphosphate 3-kinase catalytic subunit alpha isoform (Homo sapiens) (UniProt P42336); details: at 1 µM
[6] = target: T2, Phosphatidylinositol 4,5-bisphosphate 3-kinase catalytic subunit delta isoform (Homo sapiens) (UniProt O00329); details: at 0.1 µM
T2 sequence (whole entry): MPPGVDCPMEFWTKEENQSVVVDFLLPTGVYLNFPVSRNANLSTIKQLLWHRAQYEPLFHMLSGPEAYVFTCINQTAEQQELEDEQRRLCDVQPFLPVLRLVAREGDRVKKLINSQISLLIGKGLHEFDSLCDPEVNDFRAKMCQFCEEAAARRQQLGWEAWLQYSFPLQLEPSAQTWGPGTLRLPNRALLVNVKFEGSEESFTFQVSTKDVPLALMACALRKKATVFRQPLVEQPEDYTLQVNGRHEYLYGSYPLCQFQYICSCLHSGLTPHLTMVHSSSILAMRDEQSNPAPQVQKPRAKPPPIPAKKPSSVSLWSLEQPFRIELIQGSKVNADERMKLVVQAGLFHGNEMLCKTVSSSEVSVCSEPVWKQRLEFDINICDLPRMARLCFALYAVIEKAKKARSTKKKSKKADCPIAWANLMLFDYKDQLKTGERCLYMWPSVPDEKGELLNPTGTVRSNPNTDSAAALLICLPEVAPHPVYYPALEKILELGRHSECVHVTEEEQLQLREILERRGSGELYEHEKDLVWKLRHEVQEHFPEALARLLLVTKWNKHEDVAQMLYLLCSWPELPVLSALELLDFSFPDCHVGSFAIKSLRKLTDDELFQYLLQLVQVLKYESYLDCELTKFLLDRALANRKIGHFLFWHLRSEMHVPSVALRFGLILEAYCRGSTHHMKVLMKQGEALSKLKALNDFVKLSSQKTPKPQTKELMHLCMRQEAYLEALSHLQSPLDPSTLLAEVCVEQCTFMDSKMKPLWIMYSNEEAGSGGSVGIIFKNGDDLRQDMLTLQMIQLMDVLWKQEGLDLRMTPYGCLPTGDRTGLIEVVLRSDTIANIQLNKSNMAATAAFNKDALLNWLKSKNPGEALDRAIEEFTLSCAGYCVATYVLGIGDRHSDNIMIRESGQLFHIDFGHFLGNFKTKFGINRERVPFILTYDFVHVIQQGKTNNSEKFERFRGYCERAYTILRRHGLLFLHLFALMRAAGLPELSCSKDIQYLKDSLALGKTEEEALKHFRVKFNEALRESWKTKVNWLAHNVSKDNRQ

[7] = target: T2, Phosphatidylinositol 4,5-bisphosphate 3-kinase catalytic subunit delta isoform (Homo sapiens); details: at 1 µM
[8] = target: Phosphatidylinositol 4-kinase beta (Homo sapiens) (UniProt Q9UBF8); details: at 0.1 µM
[9] = target: Phosphatidylinositol 4-kinase beta (Homo sapiens) (UniProt Q9UBF8); details: at 1 µM
[10] = target: Sphingosine kinase 1 (Homo sapiens) (UniProt Q9NYA1); details: at 0.1 µM;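 also: mean percent inhibition of SPHK1 activity, measured within the GSK PKIS screening panel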
Sequence of UniProt Q9NYA1 (Q9NYA1 whole entry): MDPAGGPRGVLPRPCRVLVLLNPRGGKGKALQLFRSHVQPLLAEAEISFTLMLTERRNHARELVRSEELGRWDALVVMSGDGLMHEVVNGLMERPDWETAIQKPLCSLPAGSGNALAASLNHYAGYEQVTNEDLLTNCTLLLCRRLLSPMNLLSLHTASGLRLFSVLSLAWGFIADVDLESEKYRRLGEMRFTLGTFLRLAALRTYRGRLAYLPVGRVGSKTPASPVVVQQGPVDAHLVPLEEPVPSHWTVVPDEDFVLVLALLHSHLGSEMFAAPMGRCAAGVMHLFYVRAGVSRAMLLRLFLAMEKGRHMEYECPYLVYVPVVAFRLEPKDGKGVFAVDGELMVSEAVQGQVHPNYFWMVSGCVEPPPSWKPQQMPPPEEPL

Sequence of UniProt Q9UBF8 (Q9UBF8 whole entry, looked up): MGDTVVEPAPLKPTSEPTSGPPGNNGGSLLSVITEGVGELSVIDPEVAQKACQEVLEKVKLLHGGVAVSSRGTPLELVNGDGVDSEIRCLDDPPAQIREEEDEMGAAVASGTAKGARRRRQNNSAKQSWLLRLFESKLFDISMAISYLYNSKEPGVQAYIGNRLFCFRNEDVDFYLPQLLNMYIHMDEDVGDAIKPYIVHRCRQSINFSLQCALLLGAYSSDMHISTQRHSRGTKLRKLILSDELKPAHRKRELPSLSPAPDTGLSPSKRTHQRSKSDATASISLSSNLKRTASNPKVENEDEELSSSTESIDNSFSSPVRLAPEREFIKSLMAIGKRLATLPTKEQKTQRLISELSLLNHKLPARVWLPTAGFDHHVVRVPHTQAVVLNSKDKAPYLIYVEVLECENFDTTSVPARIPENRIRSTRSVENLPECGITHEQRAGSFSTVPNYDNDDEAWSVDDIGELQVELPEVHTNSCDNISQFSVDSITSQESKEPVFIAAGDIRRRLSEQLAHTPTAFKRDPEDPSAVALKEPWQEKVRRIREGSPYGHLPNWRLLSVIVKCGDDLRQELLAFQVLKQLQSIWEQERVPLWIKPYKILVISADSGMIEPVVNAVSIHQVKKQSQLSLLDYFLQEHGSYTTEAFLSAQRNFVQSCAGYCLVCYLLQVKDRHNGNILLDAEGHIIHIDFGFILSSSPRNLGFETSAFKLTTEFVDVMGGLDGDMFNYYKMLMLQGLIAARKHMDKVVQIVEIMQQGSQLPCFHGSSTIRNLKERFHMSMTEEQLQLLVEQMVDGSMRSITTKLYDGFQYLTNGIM
Sequence of UniProt Q96SB4 (Q96SB4 whole entry, canonical isoform): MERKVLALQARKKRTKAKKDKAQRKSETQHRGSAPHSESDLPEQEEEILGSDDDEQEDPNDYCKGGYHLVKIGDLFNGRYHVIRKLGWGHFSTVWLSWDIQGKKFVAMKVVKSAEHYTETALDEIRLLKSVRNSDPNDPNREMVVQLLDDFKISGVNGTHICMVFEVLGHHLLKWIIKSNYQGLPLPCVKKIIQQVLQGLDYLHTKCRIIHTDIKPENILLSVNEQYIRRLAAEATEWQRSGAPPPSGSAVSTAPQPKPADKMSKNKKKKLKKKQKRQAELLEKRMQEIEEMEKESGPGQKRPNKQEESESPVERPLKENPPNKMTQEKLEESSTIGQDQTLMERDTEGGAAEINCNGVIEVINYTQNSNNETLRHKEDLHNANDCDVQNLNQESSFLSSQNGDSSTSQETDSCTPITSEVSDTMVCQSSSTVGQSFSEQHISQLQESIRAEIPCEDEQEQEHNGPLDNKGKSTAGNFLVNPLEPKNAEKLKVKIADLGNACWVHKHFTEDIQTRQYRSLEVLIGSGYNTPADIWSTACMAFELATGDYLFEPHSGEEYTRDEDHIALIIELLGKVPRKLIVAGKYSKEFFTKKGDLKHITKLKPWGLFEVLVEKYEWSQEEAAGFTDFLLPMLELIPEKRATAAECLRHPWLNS
Sequence of UniProt P42336 (P42336 whole entry, canonical isoform): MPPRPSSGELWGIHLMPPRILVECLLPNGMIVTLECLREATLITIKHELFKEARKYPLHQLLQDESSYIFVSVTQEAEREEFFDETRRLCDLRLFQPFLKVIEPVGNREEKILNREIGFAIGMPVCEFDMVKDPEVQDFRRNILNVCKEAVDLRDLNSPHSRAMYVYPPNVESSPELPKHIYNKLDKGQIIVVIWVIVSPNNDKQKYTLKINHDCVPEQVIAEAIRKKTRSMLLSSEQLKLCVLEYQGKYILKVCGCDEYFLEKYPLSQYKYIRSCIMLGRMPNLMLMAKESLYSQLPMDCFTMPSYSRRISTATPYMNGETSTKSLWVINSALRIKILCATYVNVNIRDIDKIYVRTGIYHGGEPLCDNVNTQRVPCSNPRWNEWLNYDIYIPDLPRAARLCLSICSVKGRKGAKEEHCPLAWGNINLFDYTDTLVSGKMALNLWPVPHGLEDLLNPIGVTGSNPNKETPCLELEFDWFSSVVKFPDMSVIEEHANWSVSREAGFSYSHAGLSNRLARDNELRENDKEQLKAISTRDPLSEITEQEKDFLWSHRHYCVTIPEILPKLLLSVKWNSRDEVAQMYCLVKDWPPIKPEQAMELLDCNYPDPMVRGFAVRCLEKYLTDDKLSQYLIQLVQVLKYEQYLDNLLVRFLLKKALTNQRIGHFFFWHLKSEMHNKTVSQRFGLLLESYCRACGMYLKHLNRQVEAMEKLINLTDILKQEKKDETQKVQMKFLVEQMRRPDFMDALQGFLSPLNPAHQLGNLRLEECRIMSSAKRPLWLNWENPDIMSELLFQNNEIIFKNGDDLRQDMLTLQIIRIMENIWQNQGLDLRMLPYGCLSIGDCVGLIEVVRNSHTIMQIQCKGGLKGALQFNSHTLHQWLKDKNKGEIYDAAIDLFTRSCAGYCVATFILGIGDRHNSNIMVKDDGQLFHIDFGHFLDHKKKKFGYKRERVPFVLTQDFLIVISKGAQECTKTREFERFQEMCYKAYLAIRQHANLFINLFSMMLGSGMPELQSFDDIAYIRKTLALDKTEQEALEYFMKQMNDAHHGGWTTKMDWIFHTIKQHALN

SMILES | inhibition [1] [%] | inhibition [2] [%] | inhibition [3] [%] | inhibition [4] [%] | inhibition [5] [%] | inhibition [6] [%] | inhibition [7] [%] | inhibition [8] [%] | inhibition [9] [%] | inhibition [10] [%]
COc1ccccc1Oc1nccc(-c2c(-c3ccc(F)cc3)ncn2C2CCNCC2)n1 | 5.21 | -2.79 | -2.14 | 4.16 | 4.47 | 0.8 | 2.11 | 4.36 | -4.4 | 0.67
O=C(O)c1ccc(Oc2nccc(-c3c(-c4ccc(F)cc4)ncn3C3CCNCC3)n2)cc1 | 5.25 | -2.32 | -1.83 | 4.28 | 3.41 | 0.85 | 0.96 | 0.78 | 17.6 | 1.88
CC(C)(C)c1ccc(Oc2nccc(-c3c(-c4ccc(F)cc4)ncn3C3CCNCC3)n2)cc1 | 4.32 | -3.4 | -2.03 | 2.87 | 1.62 | 1.14 | 5.35 | -0.74 | 1.52 | 5.13
Cc1cccc(Oc2nccc(-c3c(-c4ccc(F)cc4)ncn3C3CCNCC3)n2)c1C | 3.87 | -3.43 | -2.38 | 4.19 | 4.62 | 2.65 | 4.45 | -1.28 | 0.29 | 1.94
Fc1ccc(-c2ncn(C3CCNCC3)c2-c2ccnc(Oc3cccc(F)c3)n2)cc1 | 5.53 | -1.58 | -1.18 | 4.5 | 5.4 | -0.09 | 2.59 | -2.95 | 1.83 | 4.74
COc1ccccc1C1=C(Nc2ccccc2)C(=O)NC1=O | 2.06 | -0.85 | 0.68 | 1.86 | 1.82 | 0.58 | -0.52 | -1.79 | 2.48 | 0
CS(=O)(=O)c1ccc(Oc2nccc(-c3c(-c4ccc(F)cc4)ncn3C3CCNCC3)n2)cc1 | 3.91 | -2.72 | -3.01 | 4.89 | 9.97 | 0.72 | 6.19 | 0.13 | -3.67 | -0.26
O=C1NC(=O)C(c2ccccc2)=C1Nc1ccccc1 | 4.97 | -0.98 | -0.11 | 3.99 | 4.22 | 1.58 | 1.62 | -1.79 | 5.21 | 0
O=C1NC(=O)C(c2ccccc2Cl)=C1Nc1cc(Cl)c(O)c(Cl)c1 | 2.38 | -0.35 | 2.05 | 3.32 | 3.87 | 0.68 | 0.51 | 1.46 | 1.42 | -0.6
Fc1ccc(-c2ncn(C3CCNCC3)c2-c2ccnc(Oc3cccc(C(F)(F)F)c3)n2)cc1 | 3.95 | -2.32 | -2.22 | 5.7 | 11.4 | 2.47 | 8.26 | -4.78 | – | 0.26
NC(=O)CCc1ccccc1Oc1nccc(-c2c(-c3ccc(F)cc3)ncn2C2CCNCC2)n1 | -0.59 | 1.55 | 0.9 | -1.58 | -0.54 | -1.22 | 1.73 | – | 4.03 | 1.89
O=C1NC(=O)C(c2cccc([N+](=O)[O-])c2)=C1Nc1cc(Cl)c(O)c(Cl)c1 | 0.16 | -1.92 | -1.65 | 1.4 | 3.22 | -0.25 | -1.09 | 7.07 | 6.09 | 0.59
Fc1ccc(Oc2nccc(-c3c(-c4ccc(F)cc4)ncn3C3CCNCC3)n2)cc1 | 5.26 | -2.19 | -1.04 | 2.7 | 1.19 | 0.14 | 0.22 | 3.43 | 4.1 | -0.33
Fc1ccc(-c2ncn(C3CCNCC3)c2-c2ccnc(Oc3ccc(Cl)cc3)n2)cc1 | 1.63 | 0.07 | -0.3 | -1.35 | -1.09 | -2.92 | 0.81 | -1.1 | -0.43 | -0.05

Source: ChEMBL document CHEMBL1961873, “Compounds: GSK PKIS; Assays: Nanosyn kinase panel” (2012)
